According to the supplement of paper PMC8285479:
Structures can show the parent of a compound that is named as a salt. ± gives the standard deviation of the averaged measurements. Whole data set: some 1,900 compounds, median “normalised cell viability (NPI; 0 = phenylarsine oxide control, 1 = DMSO control)” near 1, cut for the lowest 2% near 0.039. The list shows a part of the results.

Test system: NCI-H1944
Assay: normalised cell viability (NPI; 0 = phenylarsine oxide control, 1 = DMSO control) (fraction of DMSO control); NCI-H1944 is a non-small cell lung cancer line; higher = more viable cells (less compound toxicity)
Settings: 6 days
[1] = glucocorticoid arm: hydrocortisone 2.75 uM co-treatment, compound 1 µM
[2] = glucocorticoid arm: hydrocortisone 2.75 uM co-treatment, compound 5 µM
[3] = glucocorticoid arm: hydrocortisone 2.75 uM pre-treated 2 days and continued, compound 1 µM
[4] = glucocorticoid arm: hydrocortisone 2.75 uM pre-treated 2 days and continued, compound 5 µM
[5] = glucocorticoid arm: vehicle, compound 1 µM
[6] = glucocorticoid arm: vehicle, compound 5 µM
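Note: CTB read-out in 384-well plates, mean of triplicate wells, normalised per plate against 1 µM phenylarsine oxide and 0.1% DMSO, compounds added 24 h after seeding.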

SMILES | normalised cell viability [1] | normalised cell viability [2] | normalised cell viability [3] | normalised cell viability [4] | normalised cell viability [5] | normalised cell viability [6]
CCOC(=O)[C@]12CC1/C(=N\O)c1ccccc1O2 (stereo not given in full) | 1.017 ± 0.0058 | 1.01 ± 0.024 | 1.007 ± 0.0058 | 1.02 | 0.997 ± 0.013 | 1.002 ± 0.0068
CC(C)N(CCCNC(=O)Nc1ccc(C(C)(C)C)cc1)C[C@H]1O[C@@H](n2ccc3c(N)ncnc32)[C@H](O)[C@@H]1O | 1.003 ± 0.0058 | 1.07 ± 0.025 | 0.984 ± 0.0053 | 1.04 ± 0.01 | 1.002 ± 0.0068 | 1.002 ± 0.0076
CCS(=O)(=O)Nc1ccc2[nH]c(O)c(C(=Nc3ccc(CN4CCCCC4)cc3)c3ccccc3)c2c1 [Hesperadin] | 0.435 ± 0.035 | 0.396 ± 0.068 | 0.419 ± 0.087 | 0.51 ± 0.08 | 0.371 ± 0.08 | 0.218 ± 0.035
Cc1cc(Nc2ccc(NC(=O)c3ccc(Nc4ccnc5ccccc45)cc3)cc2)nc(N)n1 | 0.99 ± 0.017 | -0.000696 ± 0.0048 | 0.9783 ± 0.0035 | 0.492 ± 0.5 | 1.006 ± 0.0075 | 0.000819 ± 0.0006
CCC(NC(C)C)C(O)c1ccc(O)c(O)c1 (stereo not given) [Isoetharine mesylate] | 0.9837 ± 0.0045 | 0.997 ± 0.014 | 0.9953 ± 0.0042 | 1.01 ± 0.088 | 0.993 ± 0.0027 | 0.999 ± 0.011
CNC(CC(=O)O)C(=O)O [NMDA (N-Methyl-D-aspartic acid)] | 1.006 ± 0.0069 | 1.03 ± 0.037 | 1.01 ± 0.032 | 1.01 ± 0.013 | 1.003 ± 0.0058 | 0.9973 ± 0.0025
CCOC(=O)C(C)(C)Oc1ccc(Cl)cc1 [Clofibrate] | 1.02 ± 0.011 | 0.9977 ± 0.004 | 1.02 ± 0.015 | 0.999 ± 0.016 | 0.998 ± 0.014 | 1.01
c1cnc2c(c1)ccc1cccnc12 [1,10-Phenanthroline monohydrate] | 0.9727 ± 0.0075 | 0.239 ± 0.034 | 1.01 ± 0.03 | 0.848 ± 0.024 | 0.9677 ± 0.0031 | 0.082 ± 0.0079
CC(C)NC[C@H](O)COc1ccc(CC(N)=O)cc1 [S(-)-Atenolol] | 0.993 ± 0.0036 | 0.9927 ± 0.0063 | 1.006 ± 0.0063 | 0.994 ± 0.0085 | 1.01 ± 0.015 | 1.003 ± 0.0064
CO[C@@]1(NC(=O)CSCC#N)C(=O)N2C(C(=O)O)=C(CSc3nnnn3C)CS[C@@H]21 [Cefmetazole sodium salt] | 0.9883 ± 0.009 | 0.995 ± 0.014 | 0.9853 ± 0.0087 | 0.9805 ± 0.0035 | 0.9703 ± 0.0075 | 0.9723 ± 0.004
O=C(O)c1ccccc1Nc1ccccc1 [N-Phenylanthranilic acid] | 0.997 ± 0.0017 | 0.988 ± 0.0089 | 0.996 ± 0.013 | 0.983 ± 0.023 | 0.982 ± 0.016 | 0.9863 ± 0.0061
C=CC[C@H](N)C(=O)O [L-allylglycine] | 0.997 ± 0.011 | 0.998 ± 0.021 | 1 ± 0.014 | 1.01 ± 0.025 | 0.995 ± 0.015 | 0.9967 ± 0.0049
Brc1ccc([C@H]2CN3CCSC3=N2)cc1 [S(-)-p-Bromotetramisole oxalate] | 0.9827 ± 0.0057 | 0.975 ± 0.019 | 0.97933 ± 0.00058 | 0.9875 ± 0.005 | 0.978 ± 0.0095 | 0.9813 ± 0.0011
CCN(CCO)CCCOc1ccc2c(Nc3cc(CC(=O)Nc4cccc(F)c4)[nH]n3)ncnc2c1 [Barasertib (AZD1152-HQPA)] | 0.934 ± 0.026 | 0.896 ± 0.032 | 0.947 ± 0.049 | 0.963 ± 0.035 | 0.757 ± 0.041 | 0.66 ± 0.08
CCCCCCCCCCCCCCCC(=O)NCCO [Palmitoylethanolamide] | 0.98 ± 0.021 | 0.966 ± 0.013 | 0.9873 ± 0.0095 | 1.02 ± 0.071 | 0.9747 ± 0.0055 | 0.984 ± 0.0046
CO[C@@H](C(=O)N1Cc2[nH]nc(NC(=O)c3ccc(N4CCN(C)CC4)cc3)c2C1)c1ccccc1 | 0.744 ± 0.037 | 0.525 ± 0.048 | 0.862 ± 0.061 | 0.703 ± 0.077 | 0.431 ± 0.036 | 0.206 ± 0.022
NC12CC3CC(CC(C3)C1)C2 [Amantadine HCl] | 1.007 ± 0.0058 | 0.983 ± 0.013 | 1 ± 0.017 | 1.01 ± 0.021 | 1 ± 0.011 | 1.002 ± 0.0072
NC12CC3CC(CC(C3)C1)C2 [Amantadine hydrochloride] | 0.982 ± 0.018 | 0.961 ± 0.027 | 0.9937 ± 0.0042 | 0.947 ± 0.012 | 0.986 ± 0.012 | 0.9747 ± 0.0086
N#C/C(=C\c1ccc(O)c(O)c1)C(=O)c1ccc(O)c(O)c1 [Tyrphostin AG 538] | 1.01 ± 0.01 | 1.02 ± 0.017 | 1.03 ± 0.035 | 1.013 ± 0.0058 | 1.007 ± 0.0058 | 1.003 ± 0.0061
CC1(C2CCCC2)Cc2cc(OCC(=O)O)c(Cl)c(Cl)c2C1=O (stereo not given) | 0.983 ± 0.014 | 0.982 ± 0.037 | 0.9883 ± 0.0072 | 0.986 ± 0.084 | 0.998 ± 0.011 | 0.9853 ± 0.0067
NCC=CC(=O)O (stereo in doubt) [cis-4-Aminocrotonic acid] | 0.992 ± 0.0092 | 0.993 ± 0.015 | 0.9857 ± 0.0042 | 0.9765 ± 0.0092 | 0.973 ± 0.0079 | 0.9753 ± 0.0086
CC(=O)[C@H]1CC[C@H]2[C@@H]3CC=C4C[C@@H](OS(=O)(=O)O)CC[C@]4(C)[C@H]3CC[C@]12C [Pregnenolone sulfate sodium] | 0.994 ± 0.0036 | 0.982 ± 0.025 | 0.998 ± 0.013 | 0.964 ± 0.026 | 0.993 ± 0.0044 | 0.992 ± 0.0095
CCCN(CCc1cccs1)[C@H]1CCc2c(O)cccc2C1 [Rotigotine] | 1.01 ± 0.016 | 0.992 ± 0.031 | 1.01 ± 0.01 | 1.013 ± 0.0058 | 0.9953 ± 0.0057 | 0.996 ± 0.0027
COc1cc2ncc(-c3ccccc3)nc2cc1OC [Tyrphostin AG 1296] | 1.04 ± 0.015 | 1.097 ± 0.0058 | 1.047 ± 0.0058 | 1.06 ± 0.02 | 1.007 ± 0.0058 | 1.01 ± 0.021
COc1cc(Nc2ncc(F)c(Nc3ccc4c(n3)NC(=O)C(C)(C)O4)n2)cc(OC)c1OC | 0.771 ± 0.012 | 0.88 ± 0.015 | 0.853 ± 0.0087 | 0.911 ± 0.04 | 0.902 ± 0.014 | 0.967 ± 0.011
